Experimental data: PubChem BioAssay AID1508623 (National Center for Advancing Translational Sciences (NCATS), 2021)
About 450 (0.94%) of roughly 48,000 compounds were called active. Not shown: some 19% with an inconclusive outcome. Calls come from the whole dose curve; as a rule, active = well fitted inhibition curve with a large enough effect; inconclusive = small, poorly fitted or top-dose-only effect; inactive = no such curve, though single readings can be large or run the other way. This is one part of the list.

Test: Primary qHTS for Identification of Small Molecule Inhibitors of Huntingtin Promoter Activity; note: nearly all actives have a fitted effect of over 50% in size
Details: HEK293 HTT promoter firefly luciferase reporter (activity 0% = vehicle and -100% = no light), 24 h; series mostly up to 57.5 µM; activity change, negative = inhibition: at the top concentration
How it was run: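 HEK293 cells carrying firefly luciferase reporters were seeded at 2,500 per well in Opti-MEM and cultured for 24 h. They were then treated with compounds at up to 57.5 uM final for 24 h at 37 degrees C before Dual-Glo luminescence readout.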

Row | SMILES | activity change, negative = inhibition
1 | COC(=O)c1c(NC(=O)c2cc3nc(-c4ccc(OC)cc4)cc(C(F)(F)F)n3n2)sc2c1CCCC2 | inactive: -15.6%
2 | Cc1ccc(NC2=CC(c3ccccc3F)N(c3ccc(C)cc3)C2=O)cc1 (configuration not stated) | inactive: -21.6%
3 | CCOc1ccccc1NC(=O)C(Cc1ccccc1)NS(=O)(=O)c1ccc2c(c1)oc(=O)n2C (configuration not stated) | inactive: -17.2%
4 | O=C(CN1C=NS(=O)(=O)c2ccccc21)Nc1ccc(F)cc1 | inactive: -3.66%
5 | O=C(NCc1cccs1)c1ccc2c(c1)N(Cc1ccccc1Cl)C(=O)c1ccccc1S2 | inactive: 8.33%
6 | COc1ccc(-c2cc(C(=O)OCC(=O)c3ccc(C)cc3)c3cccc(Cl)c3n2)cc1 | inactive: 0.923%
7 | CC(C)Cn1c(=O)c2ccccc2n2c(CCC(=O)NCc3ccccc3Cl)nnc12 | inactive: -2.79%
8 | O=C(CN1CCNCC1)NC1CCCCC1 | inactive: -0.765%
9 | CC(=O)NCCNC(=O)CCCc1nnc2n(C)c(=O)c3sccc3n12 | inactive: 2.3%
10 | COc1ccc(CNC(=O)c2cc3cc(C)ccc3n2C)cc1 | inactive: -21.1%
11 | O=C(NCc1ccccc1Br)c1ccc2nc(N3CCCCC3)sc2c1 | inactive: -13.9%
12 | CCCCN(CCCC)C(=O)CN(C)S(=O)(=O)c1ccc2c(c1)c(=O)n(C)c(=O)n2C | inactive: -21.2%
13 | CC(Nc1ccc(-c2nc(-c3ccncc3)no2)cc1[N+](=O)[O-])c1ccccc1 (configuration not stated) | inactive: 1.72%
14 | Cc1sc2c(c1C)c(=O)n(CCc1ccccc1)c(=O)n2Cc1cccc(F)c1 | inactive: -17%
15 | Cc1ccc(-n2c(=O)c3c(c4cc(C)ccc4n3C)n(CC(=O)NCc3ccccc3Cl)c2=O)cc1 | inactive: -0.914%
16 | O=C(Nc1cc(F)ccc1F)C1CCN(c2nc3ccccc3n3cccc23)CC1 | inactive: -10.2%
17 | COc1ccc(CCC(=O)NC2CC(=O)N(c3ccc(C)cc3)C2)cc1 (configuration not stated) | inactive: -23.5%
18 | CCCCNC(=O)C(CC)Sc1nnc(-c2cccc(F)c2)c(-c2cccc(F)c2)n1 (configuration not stated) | inactive: -11.5%
19 | CCCCOC(=O)c1ccc(Nc2ncnc3[nH]ncc23)cc1 | inactive: -2.72%
20 | Cc1cc(C)cc(N2CC(c3nc(-c4ccccc4C)no3)CC2=O)c1 (configuration not stated) | inactive: -16.9%
21 | CC(=O)Nc1c(C)nn(-c2ccccc2)c1N1CCC(C(=O)NCc2ccc(Cl)cc2)CC1 | inactive: -9.14%
22 | Cc1cccc(NC(=O)Cn2c(=O)n(-c3ccccc3Cl)c(=O)c3c(C)c(C(=O)N(C)C)sc32)c1 | inactive: -0.279%
23 | Cc1nc2c(C(=O)NCCc3ccc(Cl)cc3)cnn2c(C)c1Cc1c(F)cccc1Cl | inactive: -1.41%
24 | Cc1ccccc1CNC(=O)C(C)n1nc(C)n2c(cc3occc32)c1=O (configuration not stated) | inactive: -4.35%
25 | COc1ccc(CC(=O)Nc2nc3c(s2)CC(C(C)(C)C)CC3)cc1 (configuration not stated) | inactive: 9.36%
26 | COc1ccc(NC(=O)C2=CC(c3cccs3)=NS(=O)(=O)N2C)cc1 | inactive: -30.2%
27 | Cc1ccc(NC(=O)CN2C(=O)CCSc3ccc(S(=O)(=O)N4CCCC4)cc32)cc1 | inactive: -20.4%
